The RNAGym collection of RNA variant scans (doi:10.1073/pnas.2313332121)
Variants at the background level are over-represented here.

B1: TPR 5TU (parent)
chain: GGAUCUUCUCGAUCUAACAAAAAAGACAAAUCUGCCACAAAGCUUGAGAGCAUCUUCGGAUGCAGAGGCGGCAGCCUUCGGUGGCGCGAUAGCGCCAACGUUCUCAACUAUGACACGCAAAACGCGUGCUCCGUUGAAUGGAGUUUAUCAUG

Variants of: B1
Test: polymerase ribozyme fitness, log enrichment relative to wild type (log ratio); higher = more active; in vitro selection for triplet polymerase activity
In short: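 Each subunit of a heterodimeric triplet polymerase ribozyme was represented by a PCR-built, transcribed mutant library that underwent triplicate single-round in vitro selection with frozen incubation at −7 °C. Extended constructs were recovered by gel excision, streptavidin-bead capture and RT-PCR, and Illumina sequencing of input and output libraries kept genotypes with ≥10 input reads and ≥1 read per output. Fitness is the logarithm of genotype enrichment relative to wild-type enrichment, from inverse-variance-weighted replicate averages, with a logarithm base of 2.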

C10G U77C C118G C125A U146G and C10U A40C U56A G92U A150G cannot be ordered by “polymerase ribozyme fitness (log ratio)” value: no more than -4.2 for the first, no more than -4.2 for the second.

C10G G50U C54U U77C C95U A107G G141A U144A and C10U C18G A40G U56A C76A G141A A147C U148C cannot be ordered by “polymerase ribozyme fitness (log ratio)” value: no more than -4.2 for the first, no more than -4.2 for the second.

C10U G11U A30G G42C U44C A91U C96A G124A and C10A U44A G50A G80C G83U C132G cannot be ordered by “polymerase ribozyme fitness (log ratio)” value: no more than -4.2 for the first, no more than -4.2 for the second.

C10U C54U U55G and C10U A60G A64U C85U C129A cannot be ordered by “polymerase ribozyme fitness (log ratio)” value: no more than -4.2 for the first, no more than -4.2 for the second.

C10G C14G A17G A24U U82G C93G and C10U A52G G83A A122C U139C cannot be ordered by “polymerase ribozyme fitness (log ratio)” value: no more than -4.2 for the first, no more than -4.2 for the second.

C10U A52U C85A and C10U A20C A28U G84A U111A cannot be ordered by “polymerase ribozyme fitness (log ratio)” value: no more than -4.2 for the first, no more than -4.2 for the second.

C10G A19U G83A C85A A97C U109C and C10U A91U C103U U127C cannot be ordered by “polymerase ribozyme fitness (log ratio)” value: no more than -4.2 for the first, no more than -4.2 for the second.

Going from C10G A49C G59C A97U to C10G C18G U55C C57U U61A, the “polymerase ribozyme fitness (log ratio)” value rises from no more than -4.2 to -4.15.

C10G A12U A16U A20C C54A and C10G U55G C75U A91G cannot be ordered by “polymerase ribozyme fitness (log ratio)” value: no more than -4.2 for the first, no more than -4.2 for the second.

C10G C38U G50A U90A U127C G128U U145A and C10G A73G C85G G124A A150U cannot be ordered by “polymerase ribozyme fitness (log ratio)” value: no more than -4.2 for the first, no more than -4.2 for the second.

C10U C57A C75G C132G and C10U A12U C43A G50A G59C C93G C116A cannot be ordered by “polymerase ribozyme fitness (log ratio)” value: no more than -4.2 for the first, no more than -4.2 for the second.

C10U U15A C36A A37G G92A C96G and C10A C54G C95A cannot be ordered by “polymerase ribozyme fitness (log ratio)” value: no more than -4.2 for the first, no more than -4.2 for the second.

C10U C27U C43A G58A G83A G88U C105U G117U U134G and C10A G42A C54U A89U G94A U101A C105A C131U U146C cannot be ordered by “polymerase ribozyme fitness (log ratio)” value: no more than -4.2 for the first, no more than -4.2 for the second.

C10A C14G U15C C93A C95U U109G A119G C131A and C10G A30C C93G U101G cannot be ordered by “polymerase ribozyme fitness (log ratio)” value: no more than -4.2 for the first, no more than -4.2 for the second.

C10G A26C C93A G100A U139C U145A and C10G C14G A52G U53A U56A G59C U77G G92C cannot be ordered by “polymerase ribozyme fitness (log ratio)” value: no more than -4.2 for the first, no more than -4.2 for the second.

C10U A16G A29C C51G U56G C57A G70U C85G and C10U C18U A23G A24C C51U U61A C87U C93U C95U G126C U146G cannot be ordered by “polymerase ribozyme fitness (log ratio)” value: no more than -4.2 for the first, no more than -4.2 for the second.

C10U A24U A29C G68C C79A C96A and C10G G92A G152C cannot be ordered by “polymerase ribozyme fitness (log ratio)” value: no more than -4.2 for the first, no more than -4.2 for the second.

C10G A16U A97U C105U A142U A147U and C10U C27U G58C G94A G117U cannot be ordered by “polymerase ribozyme fitness (log ratio)” value: no more than -4.2 for the first, no more than -4.2 for the second.

C10U A29U G42C U44C U139C and C10G A12G A39G U53A C79A C87A C131U cannot be ordered by “polymerase ribozyme fitness (log ratio)” value: no more than -4.2 for the first, no more than -4.2 for the second.

C10G C32A G58U G59U U130C and C10A G46A G86U U90G C93G U104A A106G U144A cannot be ordered by “polymerase ribozyme fitness (log ratio)” value: no more than -4.2 for the first, no more than -4.2 for the second.

C10A U55A C85G and C10G C38U U56G A91G G141U C149A cannot be ordered by “polymerase ribozyme fitness (log ratio)” value: no more than -4.2 for the first, no more than -4.2 for the second.

C10G C76A C93U A138C and C10U G42C G68A G83C C85G G92U A97G U104A cannot be ordered by “polymerase ribozyme fitness (log ratio)” value: no more than -4.2 for the first, no more than -4.2 for the second.

C10A A26U A52C C54U A66G A89G C95U and C10U A21U A29U A52C U53A A64G G65A G81A A97U C99U A107G U139C A142U cannot be ordered by “polymerase ribozyme fitness (log ratio)” value: no more than -4.2 for the first, no more than -4.2 for the second.

C10U G11U G50C C93A C105G U151G and C10U A49C A52G G68C G92U C131U U146C cannot be ordered by “polymerase ribozyme fitness (log ratio)” value: no more than -4.2 for the first, no more than -4.2 for the second.

C10G U53G U90C C123G and C10G U56A G58U U61G G62A G92U C123U cannot be ordered by “polymerase ribozyme fitness (log ratio)” value: no more than -4.2 for the first, no more than -4.2 for the second.

C10G C87G and C10A G46A G62U A64U cannot be ordered by “polymerase ribozyme fitness (log ratio)” value: no more than -4.2 for the first, no more than -4.2 for the second.

C10U A52C G84A U101C C103U A142U and C10G A19U G46A C54G G84A C95U C105U C123A cannot be ordered by “polymerase ribozyme fitness (log ratio)” value: no more than -4.2 for the first, no more than -4.2 for the second.

C10G C43A G58A G67A A91U A121G A137G U146G and C10G G74A A97U U111G cannot be ordered by “polymerase ribozyme fitness (log ratio)” value: no more than -4.2 for the first, no more than -4.2 for the second.

C10A A28G A40G A41C U82A U139G and C10U A37C C76U G86C C103G U139C cannot be ordered by “polymerase ribozyme fitness (log ratio)” value: no more than -4.2 for the first, no more than -4.2 for the second.

C10U A17U C75U C93U and C10A A29U C93G cannot be ordered by “polymerase ribozyme fitness (log ratio)” value: no more than -4.2 for the first, no more than -4.2 for the second.

C10G G81A G141A G152A and C10G A19C cannot be ordered by “polymerase ribozyme fitness (log ratio)” value: no more than -4.2 for the first, no more than -4.2 for the second.

C10A A47C A49U U90G G92A G126A U144G and C10G U31A A39U U55A C93U G141U cannot be ordered by “polymerase ribozyme fitness (log ratio)” value: no more than -4.2 for the first, no more than -4.2 for the second.

Compared with C10G A29C A41C G50A A97C A98U G124A A142G, C10G C95U is higher in “polymerase ribozyme fitness (log ratio)” value: no more than -4.2 for the first, -3.16 for the second.

C10G C27A U53G C69G G94A C99U U101G U127C G140C C149G and C10G A16C A28U A49U C72A C99G A122U cannot be ordered by “polymerase ribozyme fitness (log ratio)” value: no more than -4.2 for the first, no more than -4.2 for the second.

C10U G25U C32A C76A G83U G88C C93G and C10G C14U C36A C79U G92U cannot be ordered by “polymerase ribozyme fitness (log ratio)” value: no more than -4.2 for the first, no more than -4.2 for the second.

C10G A29U G34U C38A C87G G88A A122U G136C and C10A A47U A49C G68A U78C A91G C95A U148C cannot be ordered by “polymerase ribozyme fitness (log ratio)” value: no more than -4.2 for the first, no more than -4.2 for the second.

C10U C32G C35G C93A and C10G A60G A73G A147C cannot be ordered by “polymerase ribozyme fitness (log ratio)” value: no more than -4.2 for the first, no more than -4.2 for the second.

C10A C14U G67A U77A G80U G143C and C10U A22C A29G cannot be ordered by “polymerase ribozyme fitness (log ratio)” value: no more than -4.2 for the first, no more than -4.2 for the second.

C10G C57A G80C C95U C116U and C10U C57G C85A cannot be ordered by “polymerase ribozyme fitness (log ratio)” value: no more than -4.2 for the first, no more than -4.2 for the second.

C10A C76G A138C and C10G A26C U55G C85A G126A cannot be ordered by “polymerase ribozyme fitness (log ratio)” value: no more than -4.2 for the first, no more than -4.2 for the second.

C10G A73G G92U and C10G A23C C76U C87U cannot be ordered by “polymerase ribozyme fitness (log ratio)” value: no more than -4.2 for the first, no more than -4.2 for the second.

C10U C32U C76G and C10G U56G C85U A106G U109C G143A cannot be ordered by “polymerase ribozyme fitness (log ratio)” value: no more than -4.2 for the first, no more than -4.2 for the second.
